Consider 28 molecules from the antibiotic and cytotoxicity screens of Wong et al. (2023).

This is one part of the list.

For one test, the system named is HSkMC. The experiment in a line: cytotoxicity call (relative viability < 0.9). The settings on record: 10 µM.
Another test concerns HepG2. Kind of test: cytotoxicity call (relative viability < 0.9). The following applies: 10 µM.
In the next test the test system is S. aureus RN4220. Kind of test: growth inhibition call (relative growth <= 0.2). The settings on record: 50 µM.

For `COc1cc(N2CCC(N3CCN(C)CC3)CC2)ccc1Nc1ncc(Cl)c(Nc2ccccc2S(=O)(=O)C(C)C)n1`, the cytotoxicity call in the test on HSkMC and in the test with HepG2 was “active” in each case. The growth inhibition call with S. aureus RN4220 was “inactive”.

`C[C@H]1CN([C@@H](C)CO)S(=O)(=O)c2ccc(Br)cc2O[C@H]1CN(C)CC1CCOCC1`: the cytotoxicity call with HSkMC and in the test with HepG2 was “inactive” each time. In addition, the growth inhibition call in the test on S. aureus RN4220 is “inactive”.

On to `CC(C)NC(=O)N(C)C[C@H]1Oc2ccc(NC(=O)c3ccncc3)cc2CC(=O)N([C@H](C)CO)C[C@@H]1C`, for which the cytotoxicity call in the test on HSkMC and in the test on HepG2 was “inactive” each time. Also, the growth inhibition call in the test on S. aureus RN4220 was “inactive”.

As to `CNC(=O)Cn1cc(Br)cn1`, the cytotoxicity call in the test on HSkMC and with HepG2 was “inactive” each time. Also, in the test on S. aureus RN4220, the growth inhibition call is “inactive”.

On to `Clc1ccc2c(c1)CCc1cccnc1C2=C1CCNCC1`, for which the cytotoxicity call in the test on HSkMC was “inactive”. In the test with HepG2, the cytotoxicity call was “active”. Besides, in the test on S. aureus RN4220, the growth inhibition call was “inactive”.

For the molecule `CO[C@H]1CN(C)C(=O)c2ccc(NC(=O)Nc3ccccc3)cc2OC[C@@H](C)N(C(=O)CN(C)C)C[C@@H]1C`, the cytotoxicity call in the test on HSkMC and in the test with HepG2 was “inactive” in each case. The growth inhibition call with S. aureus RN4220 was “inactive”.

For `Nc1ncn([C@H]2C[C@H](OP(=O)(O)OC[C@H]3O[C@@H](n4cnc5c(=O)nc(N)[nH]c54)C[C@@H]3O)[C@@H](CO)O2)c(=O)n1`, the cytotoxicity call in the test with HSkMC and in the test with HepG2 was “inactive” throughout. Also, the growth inhibition call in the test with S. aureus RN4220 was “inactive”.

On to `C[C@@H]1CN([C@@H](C)CO)C(=O)c2cc(NC(=O)Nc3cccc4ccccc34)ccc2O[C@H]1CN(C)Cc1ccccc1`, for which the cytotoxicity call in the test on HSkMC and in the test with HepG2 was “inactive” each time. For the same molecule, in the test with S. aureus RN4220, the growth inhibition call was “inactive”.

For the molecule `COCC#Cc1cnc2c(c1)C(=O)N([C@H](C)CO)C[C@H](C)[C@@H](CN(C)S(=O)(=O)c1ccccc1)O2`, the cytotoxicity call in the test on HSkMC and with HepG2 was “inactive” in each case. For the same molecule, the growth inhibition call in the test with S. aureus RN4220 is “inactive”.

As to `C[C@@H]1CCCCO[C@@H](CN(C)C(=O)Nc2ccc(F)cc2)[C@H](C)CN([C@@H](C)CO)C(=O)c2cc(NS(=O)(=O)c3ccccc3)ccc2O1`, the cytotoxicity call in the test on HSkMC and with HepG2 was “inactive” throughout. In addition, the growth inhibition call with S. aureus RN4220 was “inactive”.

Take `CCCCCN(CCCCC)C(=O)C(CCC(=O)[O-])NC(=O)c1ccc(Cl)c(Cl)c1.[Na+]` (centres undefined): the cytotoxicity call with HSkMC and in the test on HepG2 was “inactive” throughout. In the test with S. aureus RN4220, the growth inhibition call was “inactive”.

Consider `COc1ccc(S(=O)(=O)Nc2ccc3c(c2)C(=O)N([C@@H](C)CO)C[C@@H](C)[C@H](CN(C)C(=O)c2ccccc2)OCCCC[C@@H](C)O3)cc1`, for which the cytotoxicity call in the test on HSkMC and in the test on HepG2 was “inactive” throughout. Besides, the growth inhibition call with S. aureus RN4220 is “inactive”.

Turning to `Cc1ccc(S[C@]2(C(=O)NCCCN(C)C)CC(=O)N(Cc3ccccc3C(F)(F)F)[C@@H]2c2ccc(CO)cc2I)cc1`, the cytotoxicity call with HSkMC and in the test on HepG2 was “inactive” each time. Further, the growth inhibition call in the test with S. aureus RN4220 is “inactive”.

On to `C[C@H]1CCCCO[C@@H](CN(C)Cc2ccc3c(c2)OCO3)[C@@H](C)CN([C@@H](C)CO)C(=O)c2cc(NC(=O)c3ccccc3)ccc2O1`, for which the cytotoxicity call in the test on HSkMC and with HepG2 was “inactive” each time. In addition, in the test with S. aureus RN4220, the growth inhibition call is “inactive”.

Regarding `CCOc1ccc(Nc2c3ccccc3nc3ccccc23)cc1`, the cytotoxicity call with HSkMC was “inactive”. Besides, in the test on HepG2, the cytotoxicity call was “active”. In addition, in the test with S. aureus RN4220, the growth inhibition call is “inactive”.

With `O=C(CCCCCCC(=O)Nc1ccc([C@H]2O[C@@H](CN3CCCCCCC3)C[C@H](c3ccccc3)O2)cc1)NO`, the cytotoxicity call in the test with HSkMC and with HepG2 was “inactive” throughout. In addition, the growth inhibition call in the test with S. aureus RN4220 is “inactive”.

On to `C[C@H]1CN([C@@H](C)CO)C(=O)c2cc(NS(C)(=O)=O)ccc2O[C@H]1CN(C)C(=O)Nc1ccccc1`, for which the cytotoxicity call with HSkMC and with HepG2 was “inactive” throughout. In the test on S. aureus RN4220, the growth inhibition call was “inactive”.

Consider `COC(=O)[C@@H]1[C@@H](CO)[C@@H]2Cn3c(ccc(-c4ccccc4)c3=O)[C@@H]2N1S(C)(=O)=O`, for which the cytotoxicity call in the test with HSkMC and with HepG2 was “inactive” throughout. The growth inhibition call with S. aureus RN4220 was “inactive”.

In the case of `O=C(NO)c1ccc(-c2cn(CC(=O)N3CCOCC3)nn2)cc1`, the cytotoxicity call in the test with HSkMC and in the test on HepG2 was “inactive” each time. Further, the growth inhibition call in the test on S. aureus RN4220 was “inactive”.

`CO[C@@H]1CN(C)C(=O)c2cc(NC(=O)C3CC3)ccc2OC[C@@H](C)N(C(=O)CN2CCOCC2)C[C@H]1C`: the cytotoxicity call in the test with HSkMC and in the test with HepG2 was “inactive” throughout. Further, in the test on S. aureus RN4220, the growth inhibition call is “inactive”.

In the case of `C[C@@H]1CN([C@H](C)CO)C(=O)c2cccc(NS(C)(=O)=O)c2O[C@@H]1CN(C)Cc1ccc(C(=O)O)cc1`, the cytotoxicity call in the test with HSkMC and in the test with HepG2 was “inactive” throughout. For the same molecule, in the test with S. aureus RN4220, the growth inhibition call was “inactive”.

In the case of `COc1ccc(S(=O)(=O)Nc2ccc3c(c2)C(=O)N([C@@H](C)CO)C[C@@H](C)[C@H](CN(C)S(=O)(=O)c2ccc(C)cc2)O3)cc1`, the cytotoxicity call in the test with HSkMC and with HepG2 was “inactive” each time. In the test with S. aureus RN4220, the growth inhibition call is “inactive”.

For `Cc1c(C)c(C)c(CSc2ccccc2N)c(C)c1C`, the cytotoxicity call in the test on HSkMC and in the test with HepG2 was “inactive” throughout. Moreover, in the test on S. aureus RN4220, the growth inhibition call was “inactive”.

On to `C[C@H]1CN([C@@H](C)CO)S(=O)(=O)c2ccc(C#CC3(O)CCCC3)cc2O[C@@H]1CN(C)C(=O)Nc1ccc(F)cc1`, for which the cytotoxicity call in the test on HSkMC and in the test on HepG2 was “inactive” throughout. Moreover, the growth inhibition call in the test with S. aureus RN4220 is “inactive”.

As to `C[C@@H]1CN([C@H](C)CO)C(=O)c2cc(NS(=O)(=O)c3ccc(F)cc3)ccc2O[C@@H](C)CCCCO[C@H]1CN(C)C(=O)Nc1ccccc1`, the cytotoxicity call with HSkMC was “inactive”. Further, the cytotoxicity call in the test with HepG2 is “active”. Also, the growth inhibition call with S. aureus RN4220 was “inactive”.

Turning to `NCC[C@H]1CC[C@@H](NC(=O)NC2CCCCC2)[C@@H](CO)O1`, the cytotoxicity call in the test on HSkMC and in the test on HepG2 was “inactive” each time. Further, in the test with S. aureus RN4220, the growth inhibition call was “inactive”.

For `COc1ccc(CN(C)C[C@H]2Oc3ccc(NC(=O)CCCCCC(=O)Nc4ccccc4N)cc3C(=O)N([C@H](C)CO)C[C@H]2C)cc1`, the cytotoxicity call with HSkMC and in the test with HepG2 was “inactive” in each case. Moreover, the growth inhibition call in the test with S. aureus RN4220 is “inactive”.

With `C[C@H](CO)N1C[C@H](C)[C@H](CN(C)S(=O)(=O)c2cn(C)cn2)Oc2ccc(NS(=O)(=O)c3cn(C)cn3)cc2C1=O`, the cytotoxicity call in the test on HSkMC (human skeletal muscle cells) and in the test on HepG2 was “inactive” throughout. For the same molecule, the growth inhibition call in the test with S. aureus RN4220 was “inactive”.
